Data on 95 compounds can be found in PubChem BioAssay AID1956 (SRMLSC, 2009).

The other results are listed elsewhere or left out. Further columns of the screen follow, without active or inactive calls.

The assay in a line: compounds boosting herpes simplex virus growth – fold increase, host cell viability (AID 1956). Also: tested in PC3 cells. The settings on record: HSV replication augmentation in cells; fold increase: measured here: primary screen fold increase 10 uM, at 10 µM, stronger effect = higher value; viability: measured here: host cell viability series, at 25 µM, stronger effect = lower value.
As a reminder, the viability is a read-out of living cells in per cent, often relative to untreated cells. Regarding `Cc1ccc(C(=O)NCc2n[nH]c(=S)n2-c2ccccc2)cc1[N+](=O)[O-]`, the fold increase was determined as 1.34 and the viability was found to be 92.1%.
For `CN1/C(=C\C=C(/C#N)C(=O)Nc2ccc(Cl)cc2)C(C)(C)c2ccccc21`, the fold increase stood at 1.5.
In the case of `NS(=O)(=O)c1cccc(NC(=O)CN2CCc3ccccc32)c1`, the fold increase is 1.64 and the viability is 96.9%.
In turn, `CC(=O)c1cccc2c(O)c(C3=Nc4ccccc4C3=O)[nH]c12` had a fold increase of 1.4.
`CC(NC(=O)C(c1ccccc1)c1ccccc1)C(=O)N1CCCCC1` (configuration not stated) came in with a fold increase of 1.32.
As for `CCC(CC)C(=O)Nc1ccc(Sc2ccc([N+](=O)[O-])cc2)cc1`, the fold increase was determined as 1.33 and the viability was 87.1%.
For the compound `NCCc1nnc(SCC(=O)c2ccc(Cl)cc2)o1`, the fold increase was 1.33 and the viability is 93.9%.
On to `COc1cc(C=C2C(=O)c3ccccc3C2=O)cc(OC)c1OC`, for which the fold increase is 1.84 and the viability was determined as 93.7%.
Consider `CC(C)C1OC2(C)OC(=N)C1(C#N)C(C#N)(C#N)C2c1ccccc1` (configuration not stated), for which the fold increase was 1.84.
Take `O=[N+]([O-])c1ccc(N/N=C/c2ccc(OCc3cccc4ccccc34)cc2)nc1`: the fold increase was 1.37.
`CC(=O)N1c2ccc3ccccc3c2C2C=CCC2C1c1ccc(Br)cc1` (configuration not stated): the fold increase was 1.92 and the viability was 46.6%.
`COc1ccc(CNC(=O)C(c2ccco2)N(C(=O)Cc2cccs2)c2cccnc2)cc1` (configuration not stated) came in with a fold increase of 1.32.
`O=C(O)CSCC(=O)N1CCCN(c2nc3ccc(Cl)cc3s2)CC1`: the fold increase stood at 1.34 and the viability worked out at 93.9%.
Consider `c1csc(C2Nc3cccc4cccc(c34)N2)c1`, for which the fold increase amounted to 1.24.
Regarding `Cc1cc2n(n1)C(c1ccccc1)CC(c1ccc(Br)cc1)=N2` (configuration not stated), the fold increase was 1.77 and the viability is 88.4%.
In turn, `N#CCSc1nc2c(c(=O)n1Cc1ccccc1)C1(CCCC1)Cc1ccccc1-2` returned a fold increase of 1.2.
`COc1ccc(C2CC(c3ccc(Cl)c(Cl)c3)Nc3nc(N)nn32)cc1` (configuration not stated): the fold increase stood at 1.47 and the viability was determined as 34%.
In the case of `CN(C)C(=O)Nc1ccccc1`, the fold increase came out at 1.34 and the viability is 102%.
With `COCCCn1c(=O)/c(=C\c2ccc(OC(F)F)c(OC)c2)s/c1=C(/C#N)C(=O)NCCOC`, the fold increase amounted to 1.66 and the viability was determined as 94.4%.
Taken in the same sequence, the figures for `CCCN1C=CC(=CC=C(C#N)C#N)C=C1` were 2.45 and 95.5%.
Take `CCCCNc1ccc2c3c(cccc13)C(=O)N(CCCC)C2=O`: the fold increase was found to be 7.6 and the viability was determined as 79%.
`COc1cc(/C=C2\SC(=Nc3ccc(O)cc3)NC2=O)cc(OC)c1O`: the fold increase was 4.69 and the viability worked out at 74.9%.
Turning to `CCOC(=O)C1CCCN(CC(=O)NC2CC2)C1` (configuration not stated), the fold increase came to 1.4 and the viability came to 95.2%.
For the compound `Cc1cc[n+](-c2nc3ccccc3nc2[N-]S(=O)(=O)c2ccccc2)cc1`, the fold increase is 1.39 and the viability came out at 96.9%.
On to `C=CCOC(=O)C1=C(C)NC(SCC(=O)Nc2ccc(C)c(Cl)c2)=C(C#N)C1c1ccco1` (configuration not stated), for which the fold increase worked out at 1.56.
As to `CN(C)S(=O)(=O)c1ccc(Cl)c(NC(=O)COC(=O)CCC(=O)c2cccs2)c1`, the fold increase was 1.36 and the viability turned out to be 93.3%.
Consider `O=[N+]([O-])c1ccc(-c2nc(-c3cccs3)c(-c3cccs3)[nH]2)cc1`, for which the fold increase turned out to be 1.19 and the viability stood at 77.7%.
For `COc1ccc(N2CCN(C(=O)Cc3ccc(S(=O)(=O)N4CCOCC4)s3)CC2)cc1`, the fold increase amounted to 1.33 and the viability came to 93.3%.
For `CC(C)C1Nc2ccc(C(=O)O)cc2C2C=CCC21` (configuration not stated), the fold increase came out at 1.42 and the viability came to 105%.
Consider `CCOC(=O)/C(=C/C=C1\Sc2ccccc2N1CC)C(C)=O`, for which the fold increase came out at 5.19 and the viability amounted to 83.2%.
Taken in the same sequence, the figures for `Cc1ccc(S(=O)(=O)N(C(=O)c2ccncc2)c2ccc(OC(=O)c3ccncc3)c3ccccc23)cc1` were 1.75 and 24.6%.
Regarding `CCOC(=O)Cc1csc(NC(=O)c2sc3nc4c(C)cc(C)cc4cc3c2N)n1`, the fold increase stood at 2.53 and the viability worked out at 98.9%.
As to `CC[n+]1ccccc1/C=C/c1ccc(N(C)C)cc1`, the fold increase came to 1.86 and the viability was 36.4%.
For the compound `CCn1c(C)[n+](CC)c2ccc(S(=O)(=O)N(C)C)cc21`, the fold increase worked out at 1.47 and the viability came out at 104%.
On to `Cc1c(C(=O)/C=C/N(C)C)nnn1-c1ccc(F)c(Cl)c1`, for which the fold increase was determined as 1.36 and the viability is 103%.
On to `CCOC(=O)C1CCN(C(=O)CSc2cc(=O)n(CC)c3ccccc23)CC1`, for which the fold increase worked out at 1.32 and the viability stood at 95.1%.
In the case of `CC(=O)/C(C#N)=C1\NC(=O)C(Cc2ccc(C)c(Cl)c2)S1` (configuration not stated), the fold increase was 1.88 and the viability was found to be 87.8%.
Consider `COc1ccnc(NCc2cccnc2)c1C#N`, for which the fold increase turned out to be 1.37 and the viability is 100%.
Consider `Nc1nc(SCC(=O)Nc2ccccc2)nc2nc3c(cc12)CCCC3`, for which the fold increase is 1.32.
Turning to `CCN(CC)S(=O)(=O)c1ccc2c(c1)nc(CCC(=O)OCC(=O)N1CCc3ccccc31)n2C`, the fold increase was 1.16.
On to `CN(C)/C=C(\C=O)c1ncc(C(F)(F)F)cc1Cl`, for which the fold increase was 1.39 and the viability was 98.7%.
`C=CCN1C(=O)c2cccc3c(N4CCCCC4)ccc(c23)C1=O` yielded a fold increase of 8.38.
As to `C=CCn1c(=O)[nH]c2nc3cc(N=CN(C)C)c(C)cc3nc2c1=O`, the fold increase is 3.95 and the viability is 95.6%.
Taken in the same sequence, the figures for `N#C/C(=C/c1ccco1)c1nc2ccccc2s1` were 1.51 and 88.5%.
With `N=C1/C(=C\c2coc3ccccc3c2=O)C(=O)N=C2SC=CN12`, the fold increase was 1.85 and the viability worked out at 98.6%.
In the case of `Cc1ccc(C)c(-n2c(CNc3ccc(F)cc3)nnc2SCC(N)=O)c1`, the fold increase stood at 1.36 and the viability is 98.2%.
In turn, `C[n+]1cc(C(=O)N2CCCCC2)ccc1/C=C/c1c[nH]c2ccccc12` showed a fold increase of 3.22.
Consider `COc1ccc(NC(=O)Cn2c(=O)c(C)nc3ccccc32)cc1Cl`, for which the fold increase was 1.32.
On to `CN(C)c1ccc(/C=C/C(=O)c2cccc(Br)c2)cc1`, for which the fold increase stood at 2.33 and the viability stood at 79.6%.
Taken in the same sequence, the figures for `O=C(c1cc(COc2ccc3ncccc3c2)on1)N1CCC(O)CC1` were 1.5 and 63.2%.
Take `CC1=CC2=NC(=O)/C(=C/c3coc4ccccc4c3=O)C(=N)N2O1`: the fold increase came out at 1.97 and the viability was 92.3%.
As for `CCCCCCn1c(=O)[nH]c2nc3cc(N)c(C)cc3nc2c1=O`, the fold increase came to 6.65.
With `C=CCSc1nc(N)c(C#N)c(-c2ccccc2)c1C#N`, the fold increase was 1.78 and the viability came to 94.3%.
`CCOc1ccccc1-c1cc(C(=O)N/N=C/c2ccc3c(c2)OCO3)c2ccccc2n1` displayed a fold increase of 1.13.
In the case of `Cc1ccc(N=Cc2nc(/C=C/c3cccc([N+](=O)[O-])c3)oc2O)cc1`, the fold increase was 1.6 and the viability came to 104%.
Consider `Cc1ccc(-n2nc(C)c3c(C)cc(=O)[nH]c32)cc1`, for which the fold increase is 1.35 and the viability was found to be 96.6%.
Taken in the same sequence, the figures for `Cc1ccc(-c2cc(-c3ccco3)c3c(N)c(C(=O)NN)oc3n2)cc1` were 1.64 and 91.8%.
On to `CCOC(=O)C1=C(O)/C(=C\c2ccc(CNS(=O)(=O)c3ccc(Br)cc3)o2)N=C1C`, for which the fold increase was 1.35 and the viability is 100%.
For the compound `Cc1cc2oc3c(c(=O)c2cc1C)C(c1cccc(Br)c1)N(Cc1ccco1)C3=O` (configuration not stated), the fold increase was 1.29.
Take `C=CCNC(=S)Nc1ccc2nc(C)oc2c1`: the fold increase was determined as 1.35 and the viability stood at 91.1%.
As to `O=c1c(O)c(-c2cccs2)oc2ccccc12`, the fold increase is 5.2 and the viability was found to be 101%.
With `CCOC(=O)c1c(-c2ccc(OC)cc2)csc1/N=C/C1C(=O)CCCC1=O`, the fold increase came out at 1.46 and the viability is 97.8%.
On to `N#Cc1cc(C(=O)c2cc(F)ccc2O)cn(-c2nccs2)c1=O`, for which the fold increase turned out to be 3.05.
Consider `CCOCCCn1c(SCC(=O)/C(C#N)=C(\C)N)nc2ccccc2c1=O`, for which the fold increase amounted to 1.34 and the viability stood at 104%.
Taken in the same sequence, the figures for `CCCCC1OC23CCCCC2C(C#N)(C#N)C1(C#N)C(=N)O3` (configuration not stated) were 1.94 and 104%.
As to `CC1=NN(c2ccccc2)C(=O)/C1=C\C=C1\N(C)c2ccccc2C1(C)C`, the fold increase is 1.37 and the viability was determined as 93.6%.
Taken in the same sequence, the figures for `O=C1NC(=Nc2ccccc2)/C(=C/c2ccco2)S1` were 1.95 and 90.4%.
In the case of `O=C(NC(Cc1ccccc1)C(=O)Oc1ccc2c(C(F)(F)F)cc(=O)oc2c1)OCc1ccccc1` (configuration not stated), the fold increase amounted to 1.79 and the viability was 100%.
In turn, `COc1ccc(OC2C(=O)N(CCc3ccc(OC)c(OC)c3)C2c2ccc3c(c2)OCO3)cc1` (configuration not stated) yielded a fold increase of 1.23.
With `Cc1cc(/C=C2\Sc3ccccc3N2C)cc(C)[n+]1CC1CCCO1` (configuration not stated), the fold increase is 1.47 and the viability is 44%.
`Oc1c(C=Nc2ccc(Cl)cn2)sc2ccccc12`: the fold increase came out at 1.51 and the viability stood at 91.9%.
The compound `COc1ccc(/C=C/C(=O)c2cc(F)ccc2OC(=O)c2ccccc2)cc1OC` showed a fold increase of 1.07.
As for `C=CCc1c(C)c(C#N)c2nc3ccccc3n2c1N1CCCCC1`, the fold increase amounted to 1.36 and the viability is 93.9%.
Consider `Cc1c(NC(=O)COC(=O)c2cc(-c3cccc4ccccc34)nc3ccccc23)c(=O)n(-c2ccccc2)n1C`, for which the fold increase was 2.09 and the viability is 97.7%.
Taken in the same sequence, the figures for `CC(C)CC(NC(=O)c1ccco1)C(=O)Nc1ccc2c(c1)OCCO2` (configuration not stated) were 1.36 and 96.4%.
With `COc1cccc(C(=O)NC(=S)Nc2ccc3oc(=O)ccc3c2)c1`, the fold increase was found to be 1.38.
Consider `NC(=O)c1c(NC(=O)C2c3ccccc3Oc3ccccc32)sc2c1CCCCC2`, for which the fold increase was 1.34 and the viability came out at 96.1%.
Take `COC(=O)c1ccc(NC(=O)CCN2C(=O)CSC2=O)cc1`: the fold increase is 1.43 and the viability worked out at 94.2%.
Take `C[n+]1cccc2cccc([O-])c21`: the fold increase was 1.35 and the viability came to 94.7%.
In the case of `O=C1/C(=C\c2ccc(O)cc2)SC(=S)N1/N=C/c1ccc(O)cc1`, the fold increase came out at 7.29 and the viability turned out to be 99.6%.
In the case of `Cn1c(Cn2c(=O)sc3ccccc32)nnc1SCC(=O)Nc1ccccc1`, the fold increase came to 1.33 and the viability is 99.2%.
Regarding `CCOC(=O)N1CCN(C(=O)C2CC(c3ccccc3OC)=NO2)CC1` (configuration not stated), the fold increase stood at 1.62 and the viability is 97.8%.
For `O=C(Cc1ccc(S(=O)(=O)N2CCCC2)s1)N1CCN(c2ccccc2)CC1`, the fold increase was found to be 1.94 and the viability was found to be 101%.
For `COc1cc(/C=C2\S/C(=N/S(=O)(=O)Cc3ccccc3)NC2=O)c([N+](=O)[O-])cc1OC`, the fold increase was 1.33 and the viability stood at 104%.
On to `COc1ccc(-c2ccc3c(N)c(C(=O)c4cccc(OC)c4)sc3n2)cc1`, for which the fold increase was 1.66 and the viability was 92.8%.
Turning to `CCN(CC)c1ccc(/C=C/c2nc3ccccc3s2)cc1`, the fold increase came out at 5.64.
As to `CCOC(=O)CSc1n[nH]c(NC(=O)c2ccc(F)cc2)n1`, the fold increase is 1.37 and the viability is 94.8%.
In the case of `CCOc1ccc(-c2nc(CSCC(=O)N3CCN(C(=O)c4ccco4)CC3)c(C)o2)cc1`, the fold increase amounted to 1.36 and the viability was determined as 99.3%.
Taken in the same sequence, the figures for `Cc1ccccc1N1C(=O)c2cccc3c(N(C)CCO)ccc(c23)C1=O` were 2.44 and 94.2%.
Regarding `N#C/C(=C/c1ccc(N2CCCCC2)o1)C(=O)Nc1ccc2ccccc2c1`, the fold increase amounted to 8.13 and the viability came out at 74.8%.
`COc1ccc(Cn2c(C)c(C)c(C#N)c2NC(=O)Nc2ccc(F)cc2)cc1` returned a fold increase of 1.24.
Turning to `COc1ccc(Cc2nc(-c3ccc(-n4cccc4)cc3)no2)cc1`, the fold increase came to 1.38 and the viability worked out at 102%.
As for `CN(C=[N+](C)C)c1cccc2c1C(=O)c1ccccc1C2=O`, the fold increase stood at 1.34 and the viability worked out at 91.8%.
`CC(=O)c1ccc2c(c1)C1C=CCC1C(c1ccc(S(=O)(=O)N3CCOCC3)cc1)N2` (configuration not stated): the fold increase was found to be 1.43 and the viability was determined as 96.7%.
As for `COc1ccccc1NC(=O)Nc1ccc2[nH]c(=O)[nH]c2c1`, the fold increase came to 1.52 and the viability amounted to 84.5%.
